Test results as given in patent US11618753B2 (priority 2018, dated 2023).

Tested on: MLKL phosphorylation, HT29-L23 human colorectal adenocarcinoma cells
Assay: cells
Settings: read-out: pMLKL HCS Cell Assay (IC50, uM)

SMILES | IC50
COc1ncc(-c2cc(C(F)(F)F)c3c(N)ncnn23)cc1C(=O)NC1CN(Cc2ccc(Cl)cc2)CC1F (racemic) [Example 224, 5-[4-amino-5-(trifluoromethyl)pyrrolo[2,1-f][1,2,4]triazin-7-yl]-N-{1-[(4-chlorophenyl)methyl]-4-fluoropyrrolidin-3-yl}-2-methoxypyridine-3-carboxamide] | 0.0089 µM
COc1ncc(-c2cc(C(F)(F)F)c3c(N)ncnn23)cc1C(=O)NC1CN(Cc2ccc3ccccc3n2)CC1F (racemic) [Example 225, 5-[4-amino-5-(trifluoromethyl)pyrrolo[2,1-f][1,2,4]triazin-7-yl]-N-{4-fluoro-1-[(quinolin-2-yl)methyl]pyrrolidin-3-yl}-2-methoxypyridine-3-carboxamide] | 0.021 µM
COc1ncc(-c2cc(C(F)(F)F)c3c(N)ncnn23)cc1C(=O)NC1CN(Cc2cccc3cccnc23)CC1F (racemic) [Example 226, 5-[4-amino-5-(trifluoromethyl)pyrrolo[2,1-f][1,2,4]triazin-7-yl]-N-{4-fluoro-1-[(quinolin-8-yl)methyl]pyrrolidin-3-yl}-2-methoxypyridine-3-carboxamide] | 0.259 µM
COc1ncc(-c2cc(C(F)(F)F)c3c(N)ncnn23)cc1C(=O)NC1CN(Cc2cccc(C#N)c2)CC1F (racemic) [Example 227, 5-[4-amino-5-(trifluoromethyl)pyrrolo[2,1-f][1,2,4]triazin-7-yl]-N-{1-[(3-cyanophenyl)methyl]-4-fluoropyrrolidin-3-yl}-2-methoxypyridine-3-carboxamide] | 0.0038 µM
COc1ncc(-c2cc(C(F)(F)F)c3c(N)ncnn23)cc1C(=O)NC1CN(Cc2cccc(C(F)(F)F)c2)CC1F (racemic) [Example 228, 5-[4-amino-5-(trifluoromethyl)pyrrolo[2,1-f][1,2,4]triazin-7-yl]-N-(4-fluoro-1-{[3-(trifluoromethyl)phenyl]methyl}pyrrolidin-3-yl)-2-methoxypyridine-3-carboxamide] | 0.174 µM
COc1ncc(-c2cc(C(F)(F)F)c3c(N)ncnn23)cc1C(=O)NC1CN(Cc2cncc(F)c2)CC1F (racemic) [Example 230, 5-[4-amino-5-(trifluoromethyl)pyrrolo[2,1-f][1,2,4]triazin-7-yl]-N-{4-fluoro-1-[(5-fluoropyridin-3-yl)methyl]pyrrolidin-3-yl}-2-methoxypyridine-3-carboxamide] | 0.015 µM
COc1ncc(-c2cc(C(F)(F)F)c3c(N)ncnn23)cc1C(=O)NC1CN(Cc2ccncc2)CC1F (racemic) [Example 231, 5-[4-amino-5-(trifluoromethyl)pyrrolo[2,1-f][1,2,4]triazin-7-yl]-N-{4-fluoro-1-[(pyridin-4-yl)methyl]pyrrolidin-3-yl}-2-methoxypyridine-3-carboxamide] | 0.0073 µM
COc1ncc(-c2cc(C(F)(F)F)c3c(N)ncnn23)cc1C(=O)NC1CN(Cc2ccccc2C(F)(F)F)CC1F (racemic) [Example 232, 5-[4-amino-5-(trifluoromethyl)pyrrolo[2,1-f][1,2,4]triazin-7-yl]-N-(4-fluoro-1-{[2-(trifluoromethyl)phenyl]methyl}pyrrolidin-3-yl)-2-methoxypyridine-3-carboxamide] | 0.0062 µM
COc1ncc(-c2cc(C(F)(F)F)c3c(N)ncnn23)cc1C(=O)NC1CN(Cc2ccc(C)cc2)CC1F (racemic) [Example 233, 5-[4-amino-5-(trifluoromethyl)pyrrolo[2,1-f][1,2,4]triazin-7-yl]-N-{4-fluoro-1-[(4-methylphenyl)methyl]pyrrolidin-3-yl}-2-methoxypyridine-3-carboxamide] | 0.03 µM
COc1ncc(-c2cc(C(F)(F)F)c3c(N)ncnn23)cc1C(=O)NC1CN(Cc2cc(F)ccc2F)CC1F (racemic) [Example 234, 5-[4-amino-5-(trifluoromethyl)pyrrolo[2,1-f][1,2,4]triazin-7-yl]-N-{1-[(2,5-difluorophenyl)methyl]-4-fluoropyrrolidin-3-yl}-2-methoxypyridine-3-carboxamide] | 0.015 µM
COc1ncc(-c2cc(C(F)(F)F)c3c(N)ncnn23)cc1C(=O)NC1CN(Cc2ccc(F)c(C)c2)CC1F (racemic) [Example 235, 5-[4-amino-5-(trifluoromethyl)pyrrolo[2,1-f][1,2,4]triazin-7-yl]-N-{4-fluoro-1-[(4-fluoro-3-methylphenyl)methyl]pyrrolidin-3-yl}-2-methoxypyridine-3-carboxamide] | 0.025 µM
COc1ncc(-c2cc(C(F)(F)F)c3c(N)ncnn23)cc1C(=O)NC1CN(Cc2ccc(OC(F)(F)F)c(F)c2)CC1F (racemic) [Example 236, 5-[4-amino-5-(trifluoromethyl)pyrrolo[2,1-f][1,2,4]triazin-7-yl]-N-(4-fluoro-1-{[3-fluoro-4-(trifluoromethoxy)phenyl]methyl}pyrrolidin-3-yl)-2-methoxypyridine-3-carboxamide] | 0.21 µM
COc1ncc(-c2cc(C(F)(F)F)c3c(N)ncnn23)cc1C(=O)NC1CN(Cc2cccc(C)c2)CC1F (racemic) [Example 237, 5-[4-amino-5-(trifluoromethyl)pyrrolo[2,1-f][1,2,4]triazin-7-yl]-N-{4-fluoro-1-[(3-methylphenyl)methyl]pyrrolidin-3-yl}-2-methoxypyridine-3-carboxamide] | 0.039 µM
COc1ncc(-c2cc(C(F)(F)F)c3c(N)ncnn23)cc1C(=O)NC1CN(Cc2cc(F)cc(F)c2)CC1F (racemic) [Example 238, 5-[4-amino-5-(trifluoromethyl)pyrrolo[2,1-f][1,2,4]triazin-7-yl]-N-{1-[(3,5-difluorophenyl)methyl]-4-fluoropyrrolidin-3-yl}-2-methoxypyridine-3-carboxamide] | 0.01 µM
COc1ncc(-c2cc(C(F)(F)F)c3c(N)ncnn23)cc1C(=O)NC1CN(Cc2cncc(Br)c2)CC1F (racemic) [Example 239, 5-[4-amino-5-(trifluoromethyl)pyrrolo[2,1-f][1,2,4]triazin-7-yl]-N-{1-[(5-bromopyridin-3-yl)methyl]-4-fluoropyrrolidin-3-yl}-2-methoxypyridine-3-carboxamide] | 0.068 µM
COc1ncc(-c2cc(C(F)(F)F)c3c(N)ncnn23)cc1C(=O)NC1CN(Cc2cccc3ccccc23)CC1F (racemic) [Example 240, 5-[4-amino-5-(trifluoromethyl)pyrrolo[2,1-f][1,2,4]triazin-7-yl]-N-{4-fluoro-1-[(naphthalen-1-yl)methyl]pyrrolidin-3-yl}-2-methoxypyridine-3-carboxamide] | 0.271 µM
COc1ncc(-c2cc(C(F)(F)F)c3c(N)ncnn23)cc1C(=O)NC1CN(Cc2ccc(C#N)cc2)CC1F (racemic) [Example 241, 5-[4-amino-5-(trifluoromethyl)pyrrolo[2,1-f][1,2,4]triazin-7-yl]-N-{1-[(4-cyanophenyl)methyl]-4-fluoropyrrolidin-3-yl}-2-methoxypyridine-3-carboxamide] | 0.033 µM
COc1ncc(-c2cc(C(F)(F)F)c3c(N)ncnn23)cc1C(=O)NC1CN(Cc2cc(C)on2)CC1F (racemic) [Example 242, 5-[4-amino-5-(trifluoromethyl)pyrrolo[2,1-f][1,2,4]triazin-7-yl]-N-{4-fluoro-1-[(5-methyl-1,2-oxazol-3-yl)methyl]pyrrolidin-3-yl}-2-methoxypyridine-3-carboxamide] | 0.032 µM
Cc1ncc(-c2cc(C(F)(F)F)c3c(N)ncnn23)cc1C(=O)NC1CN(C(=O)C2CCC(F)(F)CC2)C[C@@H]1F (mixture of isomers) [Example 358, 5-[4-amino-5-(trifluoromethyl)pyrrolo [2,1-f][1,2,4]triazin-7-yl]-N-[1-(4,4-difluorocyclohexanecarbonyl)-4-fluoropyrrolidin-3-yl]-2-methyl-pyridine-3-carboxamide] | 0.019 µM
CC(C(=O)N1C[C@H](F)[C@H](NC(=O)c2cc(-c3cc(C(F)(F)F)c4c(N)ncnn34)cc(F)c2Cl)C1)C(F)(F)F (mixture of isomers) [Example 633, 5-[4-amino-5-(trifluoromethyl)pyrrolo[2,1-f][1,2,4]triazin-7-yl]-2-chloro-3-fluoro-N-[(3R,4S)-4-fluoro-1-(3,3,3-trifluoro-2-methylpropanoyl)pyrrolidin-3-yl]benzamide] | 0.0038 µM
CC(CC(=O)N1C[C@H](F)[C@H](NC(=O)c2cc(-c3cc(C(F)(F)F)c4c(N)ncnn34)cc(F)c2Cl)C1)C(F)(F)F (mixture of isomers) [Example 634, 5-[4-amino-5-(trifluoromethyl)pyrrolo[2,1-f][1,2,4]triazin-7-yl]-2-chloro-3-fluoro-N-[(3R,4S)-4-fluoro-1-(4,4,4-trifluoro-3-methylbutanoyl)pyrrolidin-3-yl]benzamide] | 0.0028 µM
Cc1cc(F)c(-c2cc(C(F)(F)F)c3c(N)ncnn23)cc1C(=O)N[C@@H]1CN(C(=O)C2CC2(F)F)C[C@@H]1F (mixture of isomers) [Example 807, 5-[4-amino-5-(trifluoromethyl)pyrrolo[2,1-f][1,2,4]triazin-7-yl]-N-[(3R,4S)-1-(2,2-difluorocyclopropanecarbonyl)-4-fluoropyrrolidin-3-yl]-4-fluoro-2-methylbenzamide] | 0.013 µM
COc1ncc(-c2cc(C(F)(F)F)c3c(N)ncnn23)cc1C(=O)N[C@@H]1CN(C2CCc3c(F)cccc32)C[C@@H]1F (mixture of isomers) [Example 1355, 5-[4-amino-5-(trifluoromethyl)-pyrrolo[2,1-f][1,2,4]triazin-7-yl]-N-[(3R,4S)-4-fluoro-1-(4-fluoro-2,3-dihydro-1H-inden-1-yl)pyrrolidin-3-yl]-2-methoxypyridine-3-carbox-amide] | 0.028 µM
COc1ncc(-c2cc(C(F)(F)F)c3c(N)ncnn23)cc1C(=O)N[C@@H]1CN(C2CCc3cc(F)ccc32)C[C@@H]1F (mixture of isomers) [Example 1356, 5-[4-amino-5-(trifluoromethyl)-pyrrolo[2,1-f][1,2,4]triazin-7-yl]-N-[(3R,4S)-4-fluoro-1-(5-fluoro-2,3-dihydro-1H-inden-1-yl)pyrrolidin-3-yl]-2-methoxypyridine-3-carbox-amide] | 0.042 µM
